Measurements reported in the supplement of paper PMC12632987.
The full ranking holds about 4,500 sequences; the median of “median log2 fold change of GCK-ALFA target abundance (FLAG IP / Myc IP barcode read proportion)” is about 0.078, and the lowest 2% start at about -0.6. The list shows a part of the results.

B1: GBRAP_184_5218 (protein)
chain: ATVRRAVEATTAEEAIAKADAVVAEAAAAGETLELVVILRDMSLEEIEEVMAHLAALRDAGRVADATVVVEDPVSEEELDRLVALADRYGVRLVAALKDE
B2: GBRAP_128_3507 (protein)
chain: SMEEAVEKVKKLMEEIKKADPETARKLTEEIVELLNSVSDETAEAMVEVILKELPKLSKEKLDVLADTLRENRPKVSPEKANLLAEIEVEALNEALEQEE
B3: GBRAP_128_3355 (protein)
chain: LNEEFLEEVKKTVEAMKTADVETVYKLTKELVEKISKASKEEQEAAFEILKEALPKFDAEKLEAIADAIEEQLPKLDPYTANLAADVLVEALNLAEEKEE
B4: GBRAP_160_4315 (protein)
chain: KEEYEALKKEIKEIFEEAKELIKGQTPEERKTIVRVALGDVLLLADENPAISDELEDQIAAIADEAEATVDANPNLTEEEVKALLEEAEKKILALIEKEA
B5: GBRAP_52_5886 (protein)
chain: KLEEAVKLLKEMIKAVKAGKEEEAKKLAKEIVENFDEDTIVEAVERVAEELKDKSLEEAEAFWKAAELLAKELLKKGGSEEIASYIEAIAGATLYEVSQK
B6: GBRAP_150_3905 (protein)
chain: DLETLLDIVDTAIDIAEAILDGEFDLLPHLLKLAKAAVDEAKDIDEELLKIAEEALAHVEAALKLLKEGGDEADIKAEVQEALALLEKLRELIEKKIEEE
B7: GBRAP_128_3585 (protein)
chain: SVEAVRAETRALMEAMTRADDAEAAALARELAARLTTLSLEEAEAAAEVIREELPRLSARHLEILADALEAARPQMTPEKAELAADVQVEALNEAVEKEE
B8: GBRAP_160_3985 (protein)
chain: EERLEELKEYIDEEFEEAKKMIEGETHEERVTIVRGYFGEIIMELSEDENVSEEAEEKIAKIGDETVKTIESNPDLTEEEIKKLIEEARDKIKEVLEEDY
B9: GBRAP_128_3414 (protein)
chain: STEEIVAKARELLEAMLTAGPEEQKKLAEELAELIKESDLETAEAIAEVILEMLPKFTAEQLDILADALRKHRGELTPEKQELVAEVIVEALNRREELEE
B10: GBRAP_128_3522 (protein)
chain: SIEEAIKEAKEVMEKIKNSSVEEAYEIAKEWLEKLKEWSLEEVEAAVDVMKELLPELSAEKLEAVADAIEEQRDKFSPEVARLLADLEVEALNEAEELEE
B11: GBRAP_184_5187 (protein)
chain: MVVEEELEIEDVAEARAKIAAIGERIAGKKAKLRVIVKAKKITVEIARTIMEGLGAIKAAGNATDITVELVGEMSEEVIDTAVELAKKAGIRVVIAMSEE
B12: GBRAP_166_4939 (protein)
chain: SIEEMIEELREKIEEAVEEFPSLTPEERLERAMEIGEMVRELREAGASDEEILELLKEFAKLLLEAGLDAKRLVSAVILMAELDEELEEKVWDEIDKLEK
B13: GBRAP_160_4457 (protein)
chain: DELREKLIKEVDETRDETLELIEGESHEQRVVIVEGEFGSLLLDFASDERVSDELEDEIAKIIDDLVAYLRAHPDLTEEEIKALIDEAAEEIKKAIEKHL
B14: GBRAP_42_5721 (protein)
chain: LYEVNVEIYVETVEEAEEAAEIVEKRNEEYKKKYGIIINLTIVGPEEVKELAEEINKKFEEKAKEADKSLDWVVVAGNAERVEEAIDAAVDLGLEEKKEE
B15: GBRAP_128_3190 (protein)
chain: SVEEVKKYTKEMMEKIKNSNEEEARKIAEELMEKLKTLSLEEVEAAVEVVLEMLPELSEEHLKILADVTREKRPEFTPEKANLVAEVEVEALNLLVEKEE
B16: GBRAP_128_3230 (protein)
chain: MSPELRAKVDALIKTIVEGDVAEAAAATAELVALMGEVSLEEAEEIAERLIAAIPKLTAEKLDAVADTLRENRGTLSPEKAALAAEVEIEALEQAEELEE
B17: GBRAP_84_6999 (protein)
chain: STDEEIIELAKEIFDRVKGEAAVKILALVLLKVTGETATRILNYALERDPQVAYDALSLAYEVVSEDKEEELEEEARRLMAEESPEVRAKFERLLELMKA
B18: GBRAP_48_5816 (protein)
chain: MEFDEEKLKKLVEETVEEIYELYEEAKKAGLSDEEILKLIKAELGDLALELEEAGFEKAADYLLEPKNREELAKKLYEFFKEGKKEEAKEYLFNKLKAAE
B19: GBRAP_160_4402 (protein)
chain: KEKFEKTKKEIKEIFEETKKMIEGQTPEEIKTIIEVSAGQILLEVESNEEFSDEEIDEFSKILDRYVERAKKAVEEGLEAVKEEIERMRKEVEEFIEKIE

target: GABARAP, O95166; assay: median log2 fold change of GCK-ALFA target abundance (FLAG IP / Myc IP barcode read proportion) (log2 ratio); each designed protein is fused to an ALFA-tag nanobody in HEK293 cells to bring the named protein to FLAG-tagged glucokinase (GCK); Myc marks an untargeted standard; higher = target protein stabilised (more abundant); settings: target protein: 3xFLAG-MCP-GCK-ALFA reporter; HEK293 landing pad (RPLP)
Sequence (O95166 whole entry, the tested form may be a part): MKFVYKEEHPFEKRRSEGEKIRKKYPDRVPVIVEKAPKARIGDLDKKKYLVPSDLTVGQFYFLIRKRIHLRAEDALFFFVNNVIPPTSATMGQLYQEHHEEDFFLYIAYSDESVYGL
Procedure, shortened: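 An ALFA-nanobody-fused binder library was recombined into HEK293 landing-pad cells and induced with 2 μg mL^−1 doxycycline. Cells were transfected with a plasmid expressing a FLAG-tagged target and a Myc-tagged standard. After 48 h, lysates underwent anti-FLAG and anti-Myc immunoprecipitation, and circular RNA barcodes were reverse transcribed, amplified and sequenced. Target abundance is the per-binder median log2 ratio of FLAG to Myc barcode read proportions. Barcodes needed ≥10^−7 proportion in both replicates, binders ≥3 barcodes per replicate, and a 10^−6 pseudocount was added; the two replicates were pooled.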

| Binder | median log2 fold change |
| --- | --- |
| B1 | -0.0314 |
| B2 | 0.0346 |
| B3 | 0.117 |
| B4 | -0.453 |
| B5 | 0.12 |
| B6 | -0.0402 |
| B7 | 0.117 |
| B8 | 0.139 |
| B9 | 0.341 |
| B10 | 0.186 |
| B11 | 0.57 |
| B12 | 0.209 |
| B13 | 0.0207 |
| B14 | 0.117 |
| B15 | 0.167 |
| B16 | 0.179 |
| B17 | -0.601 |
| B18 | 0.16 |
| B19 | 0.143 |
